Measurements reported in the RNAGym collection of RNA variant scans (doi:10.1073/pnas.2313332121).
Variants at the floor of the assay are shown more often than the library holds them.

B1: TPR 5TU (parent)
chain: GGAUCUUCUCGAUCUAACAAAAAAGACAAAUCUGCCACAAAGCUUGAGAGCAUCUUCGGAUGCAGAGGCGGCAGCCUUCGGUGGCGCGAUAGCGCCAACGUUCUCAACUAUGACACGCAAAACGCGUGCUCCGUUGAAUGGAGUUUAUCAUG

Variants of: B1
Experiment: polymerase ribozyme fitness, log enrichment relative to wild type (log ratio); higher = more active; in vitro selection for triplet polymerase activity
Outline: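 Fitness measures genotype enrichment against wild-type enrichment on a logarithmic scale, with inverse-variance-weighted averaging of replicates. The logarithm is base 2, and genotypes were kept only with ≥10 input reads and ≥1 read per output in Illumina sequencing. The sequenced libraries came from one triplicate in vitro selection round, including frozen incubation at −7 °C, of PCR-built, transcribed mutant libraries of each subunit of a heterodimeric triplet polymerase ribozyme.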

Variant	polymerase ribozyme fitness (log ratio)
A30C U31G U77G A107G U148G	≤ -4.2
A30C U53A G84A	≤ -4.2
A30C U55A U56A U101A G112C	≤ -4.2
A30G A39U U78G G88A G92U A137U U146C	≤ -4.2
A30G A40U C57G C95A C108G G133A	≤ -4.2
A30G A47G C87A A121G	≤ -4.2
A30G A49G G74A G86U G143U	≤ -4.2
A30G A64C A89U C93U	≤ -4.2
A30G A64C A106U	≤ -4.2
A30G A150G	≤ -4.2
A30G C38G C54A G62A C87U G126A	≤ -4.2
A30G C43G C87G C108U C125A C131G	≤ -4.2
A30G C43G G83A	≤ -4.2
A30G C43G U44A A110G U146C C149U	≤ -4.2
A30G C51A U55A U56A C75U U82A U144C	≤ -4.2
A30G C69U A91C A147C A150G	≤ -4.2
A30G C72G C93A A121U A142U	≤ -4.2
A30G C75A G84A U90G A97U U134A U151G	≤ -4.2
A30G C95U	-3.14
A30G G34A G50A C54A C85U	≤ -4.2
A30G G46A A107U	-4.03

Variant	polymerase ribozyme fitness (log ratio)
A30G G46C G80C C93U C131A G143A	≤ -4.2
A30G G70A	≤ -4.2
A30G G74C A97C C129U C149G	≤ -4.2
A30G G74C C114U	≤ -4.2
A30G G74U C95A U148G	≤ -4.2
A30G G92A U145G	≤ -4.2
A30G U45A U78C G80C A89C G94U	≤ -4.2
A30G U77A C87U	≤ -4.2
A30U A37U U53A C87U	≤ -4.2
A30U A41C C87G G133U A138C	≤ -4.2
A30U A41C G70C C93G	≤ -4.2
A30U A41G A60C C85A G141A U145A	≤ -4.2
A30U A41G C87U C125A A147U	≤ -4.2
A30U A47G U55A U82G U144C	≤ -4.2
A30U A49U A60C C85G C105A A120G G126A A137G	≤ -4.2
A30U A52G U56G G80C G84U A98C A110U	≤ -4.2
A30U A73G G81C G92U G141A U148A	≤ -4.2
A30U A106G	-2.9
A30U A137C A150C	≤ -4.2
A30U C32G A73U C93G C99G A137U A147U	≤ -4.2
A30U C32G C51U G74U C76G G81C G86C	≤ -4.2

Variant	polymerase ribozyme fitness (log ratio)
A30U C35A U61A U77C G128C U148G	≤ -4.2
A30U C35U G68U A120U	≤ -4.2
A30U C38A C75G C85U G141C	≤ -4.2
A30U C38U A52C A66C C96U	≤ -4.2
A30U C38U C95G G100A C116U	≤ -4.2
A30U C43G	≤ -4.2
A30U C43U U44G G46U A64C C75U C87U C132U	≤ -4.2
A30U C51A C76U G88U C96G A115G U144C	≤ -4.2
A30U C54G C95A A98U A122C G141C U144C	≤ -4.2
A30U C57G G62A G70C C96U C105A A120U C125A	≤ -4.2
A30U C69U G83A	≤ -4.2
A30U C75G G80C A91C A107U G136U	≤ -4.2
A30U C75G U101A U111G A119U U139A	≤ -4.2
A30U C79U	≤ -4.2
A30U C85U A97U G128A G140C C149U	≤ -4.2
A30U C87G C116A G141A	≤ -4.2
A30U G42C C76G	≤ -4.2
A30U G46U G88A A89U G94U C95A U104G U135C U144A	≤ -4.2
A30U G50A C57A C75U C85A G140U G143A	≤ -4.2
A30U G58C C76A G94C U104G G136A	≤ -4.2
A30U G59U C93U	≤ -4.2

Variant	polymerase ribozyme fitness (log ratio)
A30U G62U U90G C95A A107C C118A A142G	≤ -4.2
A30U G68U G94A	≤ -4.2
A30U G70U A110U	≤ -4.2
A30U G80C G112U	≤ -4.2
A30U G81U C93A C129G	≤ -4.2
A30U G83C U90G	≤ -4.2
A30U G83U G88A U109C C125U G133C	≤ -4.2
A30U G84C C85G A113U G141C	≤ -4.2
A30U G88C	≤ -4.2
A30U U31C G65A C85A C95G C114A U148A	≤ -4.2
A30U U33C U56A A73G C96G A106C A107U C118U G126C A138U	≤ -4.2
A30U U44G A52C C85G A107G G126C U134A A147G	≤ -4.2
A30U U45A A49C G68A U78A A97G G117U	≤ -4.2
A30U U45G C75A G86A C103G C105A	≤ -4.2
A30U U55A	-2.96
A30U U56A G94A G112C A115U C132U	≤ -4.2
A30U U77A C87U A89U G94A A137C A147U	≤ -4.2
U31A A37C A47U C116U U127G U144G U151G	≤ -4.2
U31A A39G G67C C72G C96U A107U A113G A115C U148A	≤ -4.2
U31A A40G G67U	≤ -4.2
U31A A41U G83C U111G G136C	≤ -4.2
